From patent publication US11542311B2, “Fusion protein, preparation method therefor and application thereof in preparing ophthalmic disease treatment, anti-inflammation and anti-tumor medicament” (JIANGSU RONGTAI BIOTECH CO., LTD., priority 2017, dated 2023)
Marks after values point to notes of the source that are not given here.

B1: Protein I: Fc fusion protein Fc-IL4DM-HM3: IgG1-Fc, IL-4 and HM-3 joined by flexible (F) linker; SEQ ID NO: 1 (protein)
chain: [gap - human IgG1 Fc]GGGGSGGGGSGGGGSHKCDITLQEIIKTLNSLTEQKTLCTELTVTDIFAASKNTTEKETFCRAATVLRQFYSHHEKDTRCLGATAQQFHRHKQLIRFLKRLDRNLWGLAGLNSCPVKEANQSTLENFLERLKTIMDEKDSKCSSGGGGSGGGGSGGGGSIVRRADRAAVPGGGGRGD
B2: Protein II: Fc fusion protein Fc-IL4DM-HM3: IgG1-Fc, IL-4 and HM-3 joined by rigid (R) linker; SEQ ID NO: 2 (protein)
chain: [gap - human IgG1 Fc]AEAAAKEAAAKEAAAKEAAAKAHKCDITLQEIIKTLNSLTEQKTLCTELTVTDIFAASKNTTEKETFCRAATVLRQFYSHHEKDTRCLGATAQQFHRHKQLIRFLKRLDRNLWGLAGLNSCPVKEANQSTLENFLERLKTIMDEKDSKCSSAEAAAKEAAAKEAAAKEAAAKAIVRRADRAAVPGGGGRGD

Assays:
[1] = test system: neovascularization in diabetic retinopathy rat model; assay: Diabetic retinopathy rat model (STZ); assay type: in vivo, Wistar rats; details: for quantity not named in table (effect on neovascularization in diabetic retinopathy rat model): 100 μg intravitreal every 5 days for 2 weeks; for number of ganglion cells in the retinal / number of visual cells / thickness of each layer of the retinal tissue: 100 μg, compared with the control group
[2] = test system: retinal blood vessels in OIR mice; assay: Retinal blood vessels in OIR mice; assay type: in vivo, C57/B16 mice
[3] = test system: peritoneal capillary permeability in mice; assay: Peritoneal capillary permeability in mice (Evans blue, HAc); assay type: in vivo, Kunming mice; details: for PI (%): exudation
Experimental: The drug was administered once by injection every 5 days, and the blank model group was given an equal volume of physiological saline for 5 days and fed normally. On the 5th day after the administration, a 5 g/L of Evans blue physiological saline solution was injected into the tail vein at […], followed by intraperitoneal injection ([…]) HAc solution (6 mL/L) to induce inflammation. After 20 min, the mice were sacrificed by cervical dislocation. 5 mL of physiological saline was intraperitoneally injected, the abdomen was gently rubbed for 2 min, the abdominal cavity was cut, a peritoneal washing solution was collected and centrifuged at 4000 rpm for 10 min, 1 mL of supernatant was taken, and 3 mL of physiological saline was added to obtain a 4 mL of dilution. The absorbance OD value of the dilution was measured by an ultraviolet spectrophotometer at a wavelength of 590 nm, and the amount of pigment exudation was expressed by the OD590 nm value, and peritoneal capillary permeability in mice was examined.

[4] = test system: Human umbilical vein endothelial cells (HUVECs); assay: Three-dimensional transwell assay, migration of HUVEC; assay type: cell-based; details: 24 h
Experimental: (1) 10 mg/mL Matrigel (a basement membrane matrix secreted by Engelbreth-Holm-Swarm (EHS) mouse sarcoma cells) diluted with a DMEM medium (Dulbecco's Modified Eagle Medium) at a ratio of 1:4, coated on a transwell chamber membrane, and air-dried at room temperature;
(2) HUVEC cells cultured to logarithmic phase were digested with 0.2% EDTA, collected, washed twice with PBS, followed by resuspended in an endothelial cell culture liquid containing 0.1% BSA, and counted under a microscope, and the cell concentration was adjusted to 1×10^5 cells/mL;
(3) Test solutions for each group were formulated and diluted to 100 μL with a cell culture liquid containing 0.1% BSA;
(4) The cells were inoculated into a transwell chamber, 100 μL per well, and test solutions for each group were added to the chamber. To a 24-well plate, 0.6 mL of endothelial cell culture liquid containing 5% fetal bovine serum and 1×ECGS was added to stimulate cell migration, and incubated at 5% CO2 at 37° C. for 24 h;
(5) The culture liquid in the well was discarded. The cells were fixed with 90% alcohol at room temperature for 30 min, stained with 0.1% crystal violet for 10 min at room temperature, and rinsed with water. Un-migrated cells in the upper layer were gently wiped off by a cotton swab. The observation was carried out under a microscope and four fields of view were selected for taking photos and counting. The migration inhibition (MI) was calculated according to the formula: […]
where Ntest is the migration cell number in the test group, and Ncontrol is the migration cell number in the blank control group.
The test was repeated 3 times independently. The results obtained from the test were calculated as mean±SD, and statistical t-test was performed. P<0.05 was considered as a significant difference, and P<0.01 was considered as extremely significant difference.

[5] = test system: angiogenesis of chicken embryo chorioallantoic membrane; assay: Chicken embryo chorioallantoic membrane (CAM) angiogenesis assay; assay type: in vivo, White Leghorn chicken embryos; details: 72 hours; for PI (%): CAM blood vessels; for Blood vessel number: CAM
Experimental: The study has shown that the biosynthesis rate of collagen reached the maximum on the 8th to 11th day of chicken embryo development, which was the most vigorous stage of angiogenesis, and the body's immune system had not yet been fully established at that time, and thus the chicken embryos developed to the 8th day was selected to be administered. […] The following steps were used:
(1) The White Leghorn chicken embryos on day 6 were cultured in a 37° C. incubator at 60%-70% humidity for two days.
(2) A 1.0 cm×1.0 cm window was drilled above the chicken embryo air sac, and the inner membrane was torn off with forceps to expose the chorioallantoic membrane. Lens paper having a diameter of 5 mm was used as a loading carrier, and was placed on the chorioallantoic membrane of the chicken embryo air sac. Filter paper with PBS was used as a blank group, and an administration group was added with different doses of fusion protein.
(3) The chicken embryo air sac was sealed with a sterile transparent tape, and after culturing at 37° C. for 72 hours, the chicken embryo air sac was opened, and a fixative (formaldehyde:acetone=1:1) was added for fixation for 15 minutes. The chorioallantoic membrane to which the lens paper was adhered was taken out, the distribution of the new blood vessels was observed, and the new blood vessels were counted and photographed. Five replicates were set for each dose and the results were statistically analyzed.

[6] = 64 μg intravitreal day 13, evaluated day 17

Molecule	quantity not named in table (effect on neovascularization in diabetic retinopathy rat model) ([1]; Week 4)	quantity not named in table (effect on neovascularization in diabetic retinopathy rat model) ([1]; Week 8)	quantity not named in table (effect on neovascularization in diabetic retinopathy rat model) ([1]; Week 12)	number of ganglion cells in the retinal [1]	number of visual cells [1]	thickness of each layer of the retinal tissue [1]	Area (mm^2) of neovascular clusters [2, 6]	Reduce (%) [2, 6] [%]	Exudation rate (OD590) ([3]; 8 mg/kg by injection)	Exudation rate (OD590) ([3]; 32 mg/kg by injection)	Exudation rate (OD590) ([3]; 128 mg/kg by injection)	PI (%) ([3]; 8 mg/kg)	PI (%) ([3]; 32 mg/kg)	PI (%) ([3]; 128 mg/kg)	MI (%) ([4]; 0.25 μg/mL)	MI (%) ([4]; 0.5 μg/mL)	MI (%) ([4]; 1 μg/mL)	MI (%) ([4]; 2 μg/mL)	MI (%) ([4]; 4 μg/mL)	MI (%) ([4]; 8 μg/mL)	also measured
B1	182.03 ± 3.42	211.04 ± 3.33	252.36 ± 1.34	increased	increased	increased	0.111 ± 0.027* mm^2	52.97	0.59 ± 0.02	0.46 ± 0.02	0.35 ± 0.05	10.61	30.30	46.97	18.17	30.28	62.58	70.68	68.47	44.44	Reduce (%) ([2]; 64 μg intravitreal day 13, evaluated day 17, listed as fusion protein I): 52.97%; Migration cell number ([4]; 0.25 μg/mL): 2040.0 ± 180.21; Migration cell number ([4]; 0.5 μg/mL): 1738 ± 366.83; Migration cell number ([4]; 1 μg/mL): 933.0 ± 150.58; Migration cell number ([4]; 2 μg/mL): 731.0 ± 236.53; Migration cell number ([4]; 4 μg/mL): 786.0 ± 45.50; Migration cell number ([4]; 8 μg/mL): 1385.0 ± 176.11; PI (%) ([5]; 8 μg): 32.58%; PI (%) ([5]; 32 μg): 38.64%; PI (%) ([5]; 128 μg): 58.33%; PI (%) ([5]; 128 μg, listed as fusion protein I): ~50%; Blood vessel number ([5]; 8 μg): 89 ± 8; Blood vessel number ([5]; 32 μg): 81 ± 3; Blood vessel number ([5]; 128 μg): 55 ± 10
B2	188.26 ± 2.23	212.33 ± 4.59	257.92 ± 3.88	increased	increased	increased	0.153 ± 0.022* mm^2	35.17	0.55 ± 0.07	0.42 ± 0.09	0.31 ± 0.06	16.67	36.36	53.03	14.88	51.26	72.56	76.82	64.94	29.48	Reduce (%) ([2]; 64 μg intravitreal day 13, evaluated day 17, listed as fusion protein II): 35.17%; PI (%) ([5]; 8 μg): 20.45%; PI (%) ([5]; 32 μg): 34.85%; PI (%) ([5]; 128 μg): 47.73%; PI (%) ([5]; 128 μg, listed as protein II): ~50%; Blood vessel number ([5]; 8 μg): 105 ± 12; Blood vessel number ([5]; 32 μg): 86 ± 13; Blood vessel number ([5]; 128 μg): 69 ± 8
